Reference: the supplement of paper PMC10185492
Some of the results follow. Read counts after selection give these values, which scatter widely.

These substances were tested on SARS-CoV-2 3CLpro (nsp5) (assay: substrate phage enrichment score (protease-eluted vs HEPES control, +1 offset) (ratio); higher = better cleaved substrate). Conditions: selection round: 3; protease elution time: 0.5 h.
Procedure: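 Random heptapeptide substrate phage display (M13 pIII fusion, heptapeptide between an N-terminal biotinylated AviTag GLNDIFEAQKIEWHE and pIII; phages immobilised on streptavidin) eluted by cleavage with 50 nM protease in 20 mM HEPES at 37 °C. Selected phages were NGS sequenced, and the enrichment score is (reads in protease sample + 1)/(reads in HEPES blank-selection control + 1).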

| Substance | substrate phage enrichment score |
| --- | --- |
| PCARRSM | > 42 |
| KRMETCG | > 83 |
| LKASVLQ | > 34 |
| EITVEPN | 1.64 |
| YFQGGSA | 0.734 |
| ERIEIED | 7.33 |
| TRHTRCG | 0.0488 |
| SGSSRGM | 4.3 |
| SACSGMK | 0.087 |
| HKNHNCR | 10.5 |
| DAERFCR | > 22 |
| LCTVPRQ | > 60 |
| RTPATIH | 2.25 |
| VDGGLER | 1.2 |
| CPRQILS | > 44 |
| PAAAHHH | 0.968 |
| LEAAHHH | 0.763 |
| PGADDHI | 10.7 |
| AVLRQGT | > 21 |
| RVHLQCG | 29.5 |
| TRQGPSE | 1.83 |
| DATRAQT | 8.33 |
| SQAGPSG | 1.36 |

| Substance | substrate phage enrichment score |
| --- | --- |
| EYPFTVP | 1.81 |
| KHIKGDR | 2.22 |
| FKPTVTT | 2 |
| QQYSILG | > 26 |
| WPMCESH | > 23 |
| LQEEVCI | > 28 |
| QVHVLER | 17.5 |
| PDKLKDG | > 22 |
| CRAAHHH | 0.872 |
| RKNACIM | > 23 |
| RGTTTLQ | > 27 |
| ETTGCPR | 3.33 |
| SAAAHHQ | 1.03 |
| PERCNAR | 0.143 |
| CPTTHHA | 13.5 |
| ATEAFQT | 2.11 |
| TQSLIQS | > 32 |
| CTHSRKV | 2 |
| AIGGYVC | 4 |
| VLEKNTL | 2.42 |
| LYIQGGS | 1.82 |
| QPTTRHD | 3.3 |
| PTVTHLQ | > 31 |

| Substance | substrate phage enrichment score |
| --- | --- |
| SILQSAK | > 39 |
| RHCLSCL | 10.8 |
| PLPNFQG | > 31 |
| WKAAHHH | 0.196 |
| QGFDETT | > 27 |
| YPQVELR | 10 |
| THLQAKC | > 154 |
| LLHEDFI | > 24 |
| SGSCWPA | > 30 |
| AWRPGES | > 28 |
| VPDTFQP | 0.6 |
| RNPTQLN | > 39 |
| DSSLILQ | 15 |
| VHLPVPT | 11.5 |
| SRKPGAR | 0.08 |
| AVSAPGN | 3.21 |
| FGAAHHH | 0.5 |
| SRGPCLM | > 36 |
| PWDSKVY | 0.8 |
| RVEPFPR | 0.542 |
| LGGIRLH | 2.36 |
| VQHHMMG | > 42 |
| PTRTKGQ | > 22 |

| Substance | substrate phage enrichment score |
| --- | --- |
| HATAHHH | 3.6 |
| RSCVLQG | > 77 |
| KADCVNW | 2.92 |
| QTSCNVC | 4.86 |
| SASLPRQ | > 30 |
| CPAAHHH | 1.17 |
| AAAHHQH | 1 |
| EGAAHHH | 8 |
| GIPPYAQ | 2.33 |
| RRESHKS | > 39 |
| TRSNLTG | > 21 |
| TCRTTLQ | > 121 |
| AARTQNW | 14 |
| AMLQSKS | 20.7 |
| ICEPYMN | 9 |
| PEHCQLD | 7.67 |
| FITHGLM | 7 |
| ETSRPMQ | 6.67 |
| RGNKYNR | 10 |
| SAAAHQQ | 1.17 |
| ATSDVWQ | 4.4 |
| TSCLHGV | > 36 |
| VHFQGGS | 4 |

| Substance | substrate phage enrichment score |
| --- | --- |
| GSAAAHQ | 0.824 |
| PAQVGPP | 0.378 |
| SPRNHQG | 3.75 |
| CQASGQS | 9 |
| HSQRSIP | 4.6 |
| CTGEPIR | 0.103 |
| KNDSYKP | 1.12 |
| KRRPAMQ | > 22 |
| LSSPGMS | > 26 |
| RECVVLM | > 28 |
| MPMLQSG | > 27 |
| KREPQYA | 1.5 |
| SCIFRVV | 1.85 |
| NPATMLQ | 18.5 |
| STAAHHH | 1.32 |
| AVEHATQ | 1.6 |
| YVAAHHH | 0.706 |
| VFQGGSA | 2.05 |
| SSSACSK | 0.75 |
| PPVAALQ | > 25 |
| NPSCTKW | 0.762 |
| AYAGETR | 6.67 |
